# According to the supplement of paper PMC10126150:
# Values marked as one replicate rest on one cluster of the flow cell; about a third of the high ones do not repeat.
# Tested on: ATP
# Assay: switch fluorescence ratio, 500 uM ATP over buffer (Cy3 cluster intensity, sum of 5 cycles each) (fold (ratio)); higher = stronger signal-on switching upon ATP binding; sequences stand for … in TCGTCGGCAGCGTCAGATGTGTATAAGAGACAGTTTTTTTTTTTTTTTTTTTTTTTTT…TC
# Conditions: aptamer strand: ATP DNA aptamer (quencher-CACCTGGGGGAGTATTGCGGAGGAAGG + anchor), 100 nM annealed; ATP concentration: 500 uM; one replicate
# Method in brief: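 Values give the fluorescence ratio for each switch-domain sequence, averaged from per-cluster ratios of summed target-cycle to summed buffer-cycle Cy3 intensity. The Cy3-labelled switching-strand clusters sat on a modified Illumina MiSeq flow-cell, were annealed to 100 nM quencher-labelled ATP aptamer, and were imaged in selection buffer, then after 15 min with 500 uM ATP at 22 °C. Five cycles ran with NaOH stripping and re-annealing between them, and clusters outside 100-1000 RFU were excluded.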
# 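Note: ATP exposure 15 min at 22 °C before imaging.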
row,Sequence,switch fluorescence ratio
1,TTTCCTATTT,1.03
2,TTTCCTCCAG,2.23
3,TTTCGAAGT,1.02
4,TTTCGCGCAT,1.22
5,TTTCGCGGC,1.59
6,TTTCGCTCCA,1.06
7,TTTCGGCTAG,1.11
8,TTTCGTGTT,1.07
9,TTTCTAACGG,1.03
10,TTTCTAATCA,1.03
11,TTTCTCCTTA,1
12,TTTCTGACTA,1.06
13,TTTCTTAGTA,0.983
14,TTTCTTGC,1.05
15,TTTCTTGTAG,0.962
16,TTTCTTTGCT,0.991
17,TTTGAAAA,1.02
18,TTTGAAACAC,1.08
19,TTTGAAATGA,1
20,TTTGAAATGC,0.994
21,TTTGAAGGGC,0.951
22,TTTGACGCAA,6.1
23,TTTGACTAAC,1.11
24,TTTGACTATA,1.07
25,TTTGAGATCG,0.986
26,TTTGAGCGAT,1.08

row,Sequence,switch fluorescence ratio
1,TTTGAGGA,1.06
2,TTTGAGGAAA,1.02
3,TTTGAGTACA,1.03
4,TTTGAGTTCT,0.984
5,TTTGATCGTG,1.01
6,TTTGCAGTCA,1
7,TTTGCATATT,0.99
8,TTTGCCTACC,1.28
9,TTTGCGCAAA,2.82
10,TTTGCGGAC,1.13
11,TTTGCGGAGA,1.04
12,TTTGCGGGGA,1.04
13,TTTGGAGTG,0.957
14,TTTGGCATTT,0.95
15,TTTGGCCTAA,0.985
16,TTTGGCCTG,0.991
17,TTTGGCTTA,0.977
18,TTTGGGAGTC,0.971
19,TTTGGGG,0.975
20,TTTGGTACGA,0.986
21,TTTGGTAGGT,0.998
22,TTTGGTATCC,1.05
23,TTTGGTATTC,1.05
24,TTTGGTCATC,1
25,TTTGGTCATG,1
26,TTTGGTCCGT,1.01

row,Sequence,switch fluorescence ratio
1,TTTGGTTAGA,1.05
2,TTTGGTTCGT,0.997
3,TTTGTACTTA,1.03
4,TTTGTAGTT,1.04
5,TTTGTATGTA,0.982
6,TTTGTCGACG,0.953
7,TTTGTGACCG,1.07
8,TTTGTGACGC,1.03
9,TTTGTGATGC,1.09
10,TTTGTGCGTT,1.02
11,TTTGTGCTG,1.02
12,TTTGTGGCGC,0.937
13,TTTGTGTCCT,1.43
14,TTTTAACCC,0.949
15,TTTTAACGAG,0.989
16,TTTTAAGCGA,1.1
17,TTTTAATATC,1.01
18,TTTTAATGCT,0.97
19,TTTTACCGCG,1.02
20,TTTTACCTT,1.14
21,TTTTACGAGG,1.01
22,TTTTACTTTG,0.991
23,TTTTAGAGG,0.978
24,TTTTAGCACC,1.15
25,TTTTATAAGC,0.958
26,TTTTATATAG,0.985

row,Sequence,switch fluorescence ratio
1,TTTTATCTCC,1.01
2,TTTTATGAC,1.02
3,TTTTCAGCA,1.01
4,TTTTCAGTGC,1.75
5,TTTTCATAGC,1.08
6,TTTTCCATAT,1.03
7,TTTTCGAGAA,1.01
8,TTTTCGTCTG,0.995
9,TTTTCTACGT,1.01
10,TTTTCTCTC,0.965
11,TTTTCTGGGA,0.958
12,TTTTCTTCAT,1.02
13,TTTTGAGG,0.966
14,TTTTGCAATA,1.04
15,TTTTGCGACA,0.993
16,TTTTGTAAAA,0.964
17,TTTTGTCGG,1.01
18,TTTTGTCGTA,0.917
19,TTTTGTGCCT,0.932
20,TTTTGTGGA,1.01
21,TTTTTAACAA,1.03
22,TTTTTCTCCA,1.03
23,TTTTTGAGCC,0.96
